Laboratory results reported in PMC4434885.
These are yes or no findings as the source states them, for the method shown. For some assays here: In cells and extracts the contact can be indirect. Some results given as binding are weak or reduced against the parent protein; the word gives no strength. Blank lines part the entries; values can stand above or below the substance they belong to.

Chains of the proteins cited; added tags and fusions are not shown.
UniProt O15131: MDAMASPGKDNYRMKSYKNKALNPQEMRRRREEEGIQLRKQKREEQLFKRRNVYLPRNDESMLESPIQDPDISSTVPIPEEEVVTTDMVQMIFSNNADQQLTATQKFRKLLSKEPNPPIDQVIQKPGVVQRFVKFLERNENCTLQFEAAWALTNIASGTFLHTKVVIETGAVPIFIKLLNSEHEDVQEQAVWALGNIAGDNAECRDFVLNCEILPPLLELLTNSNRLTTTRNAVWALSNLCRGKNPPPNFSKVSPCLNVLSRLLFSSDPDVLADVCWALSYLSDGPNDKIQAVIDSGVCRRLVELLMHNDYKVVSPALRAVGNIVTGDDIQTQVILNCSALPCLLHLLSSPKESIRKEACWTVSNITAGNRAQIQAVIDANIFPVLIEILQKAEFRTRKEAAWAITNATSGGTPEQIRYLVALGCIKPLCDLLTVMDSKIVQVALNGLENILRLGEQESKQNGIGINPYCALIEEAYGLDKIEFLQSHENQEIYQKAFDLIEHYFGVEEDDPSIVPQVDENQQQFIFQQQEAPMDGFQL
UniProt O00629: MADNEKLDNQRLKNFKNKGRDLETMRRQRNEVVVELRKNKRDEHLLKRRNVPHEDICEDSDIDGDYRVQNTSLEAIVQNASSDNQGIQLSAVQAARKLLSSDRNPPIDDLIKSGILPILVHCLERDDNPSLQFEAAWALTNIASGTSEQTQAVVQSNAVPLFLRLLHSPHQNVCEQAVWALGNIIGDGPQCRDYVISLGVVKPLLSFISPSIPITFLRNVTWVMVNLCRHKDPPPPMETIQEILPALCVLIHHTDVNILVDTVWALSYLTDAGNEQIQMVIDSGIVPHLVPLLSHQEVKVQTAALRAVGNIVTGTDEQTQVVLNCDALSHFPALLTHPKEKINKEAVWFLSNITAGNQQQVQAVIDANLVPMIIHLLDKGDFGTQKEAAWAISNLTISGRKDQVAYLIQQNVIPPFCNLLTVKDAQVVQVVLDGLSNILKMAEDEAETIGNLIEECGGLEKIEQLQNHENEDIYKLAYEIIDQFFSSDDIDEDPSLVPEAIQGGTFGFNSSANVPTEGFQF
UniProt Q14974: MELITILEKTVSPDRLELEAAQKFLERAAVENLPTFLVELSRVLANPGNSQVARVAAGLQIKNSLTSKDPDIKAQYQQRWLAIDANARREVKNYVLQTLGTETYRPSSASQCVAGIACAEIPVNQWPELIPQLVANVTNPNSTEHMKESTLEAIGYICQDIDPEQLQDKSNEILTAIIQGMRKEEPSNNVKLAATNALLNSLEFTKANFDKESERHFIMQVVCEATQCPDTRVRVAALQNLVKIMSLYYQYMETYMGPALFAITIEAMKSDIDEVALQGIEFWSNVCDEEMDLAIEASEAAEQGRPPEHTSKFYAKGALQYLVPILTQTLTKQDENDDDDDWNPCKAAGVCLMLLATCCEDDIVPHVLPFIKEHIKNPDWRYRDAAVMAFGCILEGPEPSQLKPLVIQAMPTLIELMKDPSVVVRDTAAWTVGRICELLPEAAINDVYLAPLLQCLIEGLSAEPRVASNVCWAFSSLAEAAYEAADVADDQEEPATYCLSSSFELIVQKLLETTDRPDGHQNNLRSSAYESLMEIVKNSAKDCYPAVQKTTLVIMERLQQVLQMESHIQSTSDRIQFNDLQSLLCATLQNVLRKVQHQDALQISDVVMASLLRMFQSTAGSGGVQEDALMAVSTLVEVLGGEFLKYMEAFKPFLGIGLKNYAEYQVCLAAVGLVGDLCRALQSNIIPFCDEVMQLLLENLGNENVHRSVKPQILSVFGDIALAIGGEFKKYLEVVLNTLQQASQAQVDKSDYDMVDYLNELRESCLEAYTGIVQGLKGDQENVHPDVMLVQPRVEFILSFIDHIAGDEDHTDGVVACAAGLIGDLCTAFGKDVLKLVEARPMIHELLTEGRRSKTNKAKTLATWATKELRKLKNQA

Experiments:
[1] = biological target: LexA-MSP58 (58-kDa microspherule protein, full length) (UniProt Q96EZ8); experiment: two-hybrid; directed test in S. cerevisiae L40: LexA-MSP58 constructs (pBTM116) as bait, Gal4 AD-importins (pACT2) as prey; growth without histidine, X-Gal colony assay and quantitative liquid β-galactosidase assay
[2] = biological target: LexA-MSP58 1–300 (UniProt Q96EZ8); experiment: as above
[3] = biological target: LexA-MSP58 300–462 (UniProt Q96EZ8); experiment: as above
[4] = biological target: LexA-MSP58 1–100 (UniProt Q96EZ8); experiment: as above
[5] = biological target: LexA-MSP58 102–300 (UniProt Q96EZ8); experiment: as above
[6] = biological target: GST-importin α6 (full length) (UniProt O15131); experiment: pull-down; 2 μg GST or GST-importin α1 or α6 with in vitro translated MSP58 (40 μl), 1-2 h, 10 mM Hepes pH 7.5, 50 mM NaCl, 0.1% Nonidet P-40, 0.5 mM DTT, 0.5 mM EDTA; glutathione Sepharose; anti-HA Western blot; only the target purified
[7] = biological target: GST-importin α6 (full length) (UniProt O15131); experiment: pull-down; GST or GST-importin α1 or α6 pre-bound to glutathione-Sepharose, mixed with COS-1 cell lysates containing EGFP-MSP58 1–100 or 102–300; anti-GFP Western blot; only the target purified
[8] = biological target: HA-MSP58 (full length, stably expressed in HT1080) (UniProt Q96EZ8); experiment: co-IP; lysates (modified RIPA buffer) of HT1080 cells stably expressing HA-MSP58; anti-HA immunoprecipitation, protein A/G PLUS-agarose; Western blot for endogenous importins; mouse IgG as control

Substance: Gal4 AD-importin α6 (entire) (from UniProt O15131 1-539)
binding [1]: binds
binding [2]: binds
binding [3]: no binding
binding [4]: binds
binding [5]: binds

Substance: EGFP-MSP58 102–300 (from UniProt Q96EZ8 102-300) (domain or fragment)
binding [7]: binds

Substance: endogenous importin α6 (HT1080) (from UniProt O15131 1-539)
binding [8]: binds

Substance: EGFP-MSP58 1–100 (from UniProt Q96EZ8 1-100) (domain or fragment)
binding [7]: binds

The remaining lines, values ahead:

binding [6]: binds
Substance: in vitro-translated MSP58 (full length) (from UniProt Q96EZ8 1-462)

binding [1]: no binding
Substance: Gal4 AD-importin α3 (entire) (from UniProt O00629 1-521)

binding [1]: no binding
Substance: Gal4 AD-importin β (from UniProt Q14974 1-876)
